# Several values for one entry are separate records, joined by “and”; a condition that tells them apart may be missing. Identical values can stand only once. About 31,000 (8.9%) of roughly 350,000 compounds were called active. The shares of active, inactive and inconclusive entries below differ from those in the screen. Calls come from the whole dose curve; as a rule, active = well fitted inhibition curve with a large enough effect; inconclusive = small, poorly fitted or top-dose-only effect; inactive = no such curve, though single readings can be large or run the other way. Potencies of inconclusive entries are doubtful fits and often do not repeat.
# Molecular target: Histone-lysine N-methyltransferase EHMT2 (Homo sapiens) (UniProt Q96KQ7)
# Experiment: qHTS Assay for Inhibitors of Histone Lysine Methyltransferase G9a; note: nearly all actives have a fitted effect of over 75% in size
# Details: G9a H3K9 monomethylation, AlphaScreen, 2 h; activity, negative = inhibition: at 59 µM (top of the series) unless noted
# Procedure, shortened: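 G9a (20 nM) was preincubated 15 min with compound, then reacted 2 h at room temperature with 500 nM biotin-H3K9 peptide and 20 µM SAM. Monomethyl-H3K9 detected by AlphaScreen using anti-H3K9me1 antibody.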
# % is set by controls: 0 for no effect and ±100 for the full control effect; potency is the fitted concentration of half-maximal effect; tags give direction and shape of the fitted curve.
# UniProt Q96KQ7, sequence (Q96KQ7 whole entry, looked up): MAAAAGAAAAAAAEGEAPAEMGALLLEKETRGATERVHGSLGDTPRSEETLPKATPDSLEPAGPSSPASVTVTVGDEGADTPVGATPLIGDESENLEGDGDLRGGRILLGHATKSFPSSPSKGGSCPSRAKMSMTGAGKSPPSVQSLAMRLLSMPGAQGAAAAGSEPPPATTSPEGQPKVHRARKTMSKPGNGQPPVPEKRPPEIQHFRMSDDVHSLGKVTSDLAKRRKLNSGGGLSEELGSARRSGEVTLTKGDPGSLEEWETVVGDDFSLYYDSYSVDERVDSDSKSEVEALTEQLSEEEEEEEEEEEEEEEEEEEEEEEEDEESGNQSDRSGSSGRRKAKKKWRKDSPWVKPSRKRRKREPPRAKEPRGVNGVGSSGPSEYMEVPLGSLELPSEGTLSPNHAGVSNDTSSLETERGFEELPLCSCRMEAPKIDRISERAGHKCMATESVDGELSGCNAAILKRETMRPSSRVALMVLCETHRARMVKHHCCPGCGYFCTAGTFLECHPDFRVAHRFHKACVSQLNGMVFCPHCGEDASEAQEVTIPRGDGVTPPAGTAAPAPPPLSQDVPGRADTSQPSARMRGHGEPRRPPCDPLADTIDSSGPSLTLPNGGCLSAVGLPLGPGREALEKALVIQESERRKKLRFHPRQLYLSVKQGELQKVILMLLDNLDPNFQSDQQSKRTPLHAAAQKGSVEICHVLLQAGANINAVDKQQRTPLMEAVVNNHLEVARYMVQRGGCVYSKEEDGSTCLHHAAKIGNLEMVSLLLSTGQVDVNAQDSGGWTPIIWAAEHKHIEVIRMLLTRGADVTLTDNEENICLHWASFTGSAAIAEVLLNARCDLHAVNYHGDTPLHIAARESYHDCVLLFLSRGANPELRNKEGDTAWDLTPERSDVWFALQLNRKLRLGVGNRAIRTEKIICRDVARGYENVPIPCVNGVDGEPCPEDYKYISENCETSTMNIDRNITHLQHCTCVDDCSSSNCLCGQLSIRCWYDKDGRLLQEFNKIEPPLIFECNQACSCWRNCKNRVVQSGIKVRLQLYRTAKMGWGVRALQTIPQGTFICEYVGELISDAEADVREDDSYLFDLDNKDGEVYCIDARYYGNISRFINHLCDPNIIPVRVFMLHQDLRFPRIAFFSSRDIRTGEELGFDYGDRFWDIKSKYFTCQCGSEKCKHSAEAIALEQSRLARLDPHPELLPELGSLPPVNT
SMILES,Potency,"activity, negative = inhibition"
C=CCn1c(SCC(=O)NCc2ccco2)nnc1-c1ccc2ccccc2n1,"inconclusive: 4.47 µM [inhibitor, single point]",–
COc1cccc(-c2nc(CS(=O)CC(=O)NC3CC3)c(C)o2)c1 (centres undefined),"inconclusive: 89.1 µM [inhibitor, partial curve, poor fit]",–
O=C(NC(c1ccccc1)c1ccccc1)c1ccc(=O)[nH]n1,–,inactive: 0.006% [at 102 µM]
O=C(Nc1nc2c(Br)cc(Br)cc2c(=O)s1)C1CCC1,"inconclusive: 79.4 µM [inhibitor, single point]",–
O=C(N/N=C/c1ccco1)c1cc(-c2ccc(Cl)s2)[nH]n1,–,inactive: 3.52% [at 102 µM]
N=C(N)SCCc1cnc[nH]1,active: 12.6 µM and active: 7.52 µM,–
Cc1ccc(/C=N/NC(=O)c2ccc3nc[nH]c3c2)o1,"inconclusive: 44.7 µM [inhibitor, partial curve, poor fit]",–
CCCCn1c(N)c(N(CCC(C)C)C(=O)c2ccccc2-n2cnnn2)c(=O)[nH]c1=O,"inconclusive: 89.1 µM [inhibitor, partial curve, poor fit]",–
NC(=O)C1(N2CCCCC2)CCN(C2CC(=O)N(Cc3cccs3)C2=O)CC1 (centres undefined),"inconclusive: 2.82 µM [inhibitor, single point]",–
Cc1cc(C)n(CCc2nc(-c3ccco3)cs2)n1,active: 3.55 µM,–
CCOc1cc(NS(=O)(=O)c2ccc(NC(C)=O)cc2)c(OCC)cc1NC(=O)C(C)C,"inconclusive: 20 µM [inhibitor, single point]",–
O=C(CCNS(=O)(=O)c1ccc(Br)cc1)NC1CCCCC1,"inconclusive: 89.1 µM [inhibitor, partial curve, poor fit]",–
CC1(C)Oc2ccc(C(=O)NN)cc2NC1=O,–,inactive: -17.2% [at 102 µM]
O=S(=O)([O-])C(c1ccccc1)[n+]1ccccc1 (centres undefined),–,inconclusive: -64.3% [inhibitor] [at 2.33 µM]
COc1ccccc1CNC(=O)COC(=O)c1cc(S(=O)(=O)N2CCOCC2)ccc1Cl,"inconclusive: 63.1 µM [inhibitor, partial curve, poor fit]",–
CNC(=S)N1N=C(c2cccs2)CC1c1ccc(OC)cc1 (centres undefined),–,inactive: 6.66% [at 102 µM]
COc1ccc(NC(=O)c2ccc(-c3ccc(C)c4ccccc34)o2)cc1,active: 39.8 µM,–
CCc1nnc(NC(=O)CSc2nnc(-c3cc4ccccc4cc3O)n2CC)s1,active: 28.2 µM,–
Cc1cc(C)c(OCC(=O)OCC(=O)NNC(=O)c2ccccc2F)c(C)c1,"inconclusive: 8.91 µM [inhibitor, single point]",–
CC1(c2ccccc2)CC(C)(C)N(C(=O)C2CCCO2)c2ccccc21 (centres undefined),–,inactive: 12.3% [at 102 µM]
Cc1ccc(N(CC(=O)N2CC(=O)Nc3ccccc32)S(=O)(=O)c2ccc3c(c2)OCCO3)cc1,"inconclusive: 39.8 µM [inhibitor, single point]",–
Cc1ccc(C(=O)Oc2ccc(C(=O)COC(=O)C3CC(=O)N(Cc4ccco4)C3)cc2)cc1 (centres undefined),"inconclusive: 22.4 µM [inhibitor, single point]",–
CCCCCNc1nc(-c2ccccc2)cs1,"inconclusive: 20 µM [inhibitor, single point]",–

SMILES,Potency,"activity, negative = inhibition"
Cc1ccc(C(=O)C[n+]2ccc(Cc3ccccc3)cc2)cc1,active: 44.7 µM,–
O=C(CNc1cccc(Cl)c1)c1ccc(Cl)cc1,"inconclusive: 22.4 µM [inhibitor, single point]",–
O=C1c2ccccc2NC(c2ccc(O)cc2)N1Cc1ccco1 (centres undefined),"inconclusive: 25.1 µM [inhibitor, single point]",–
CCOc1ccc(OCC(=O)OCC(=O)Nc2ccc3[nH]c(=O)[nH]c3c2)cc1,"inconclusive: 79.4 µM [inhibitor, partial curve, poor fit]",–
O=C(Nc1cccc(-c2nc3cccnc3s2)c1)C1c2ccccc2Oc2ccccc21,"inconclusive: 89.1 µM [inhibitor, single point]",–
Cc1cccc(/C=N/NC(=O)c2ccc(Br)cc2)c1,–,inactive: -5.21%
Cc1ccc(-c2nnc(Cc3ccc([N+](=O)[O-])cc3)o2)cc1,"inconclusive: 3.16 µM [inhibitor, single point]",–
CO[C@H]1C[C@@H]2CC[C@@H](C)[C@@](O)(O2)C(=O)C(=O)N2CCCC[C@H]2C(=O)O[C@H]([C@H](C)C[C@@H]2CC[C@@H](O)[C@H](OC)C2)CC(=O)[C@H](C)/C=C(\C)[C@@H](O)[C@@H](OC)C(=O)[C@H](C)C[C@H](C)/C=C/C=C/C=C/1C,–,inactive: -18.5% [at 12.7 µM]
CCc1cccc(CC)c1NC(=S)NCc1ccc2[nH]c(C)cc2c1,"inconclusive: 44.7 µM [inhibitor, partial curve, poor fit]",–
Cc1ccc(Cl)cc1N1CCN(C2(c3ccccc3)C(=O)c3ccccc3C2=O)CC1,"inconclusive: 7.94 µM [inhibitor, partial curve]",–
Cc1cccc(NC(=O)CSc2nnc(NC(=O)CN3CCOCC3)s2)c1,active: 7.08 µM,–
O=C1CCCC(O)=C1C(C#Cc1ccccc1)C1=C(O)CCCC1=O,active: 0.891 µM,–
Cc1c(C(=O)NNS(=O)(=O)c2ccccc2Cl)sc(=S)n1C,–,inactive: 24%
O=S(=O)(c1ccc(Br)cc1)N1CCCC1c1nc2ccccc2s1 (centres undefined),–,inactive: -6.39%
CCNC(=O)N(CCOC)CC1CCCN(C2Cc3ccccc3C2)C1 (centres undefined),–,inactive: 16.1% [at 0.501 µM]
CC1(C)CC(NC(=O)c2ccc(Br)o2)CC(C)(C)N1,–,inactive: -3.6% [at 102 µM]
CCN(CC)Cc1c(C(=O)N/N=C/c2ccc(C)o2)nnn1-c1nonc1N,"inconclusive: 89.1 µM [inhibitor, single point]",–
CCC(CC)C(=O)Nc1nnc(SCc2cc(=O)c3ccccc3[nH]2)s1,–,inactive: 12.5%
NC(=O)c1ccsc1NC(=O)c1ccc(S(=O)(=O)N2CCCC2)cc1,"inconclusive: 89.1 µM [inhibitor, partial curve, poor fit]",–
O=C(CCCC(=O)c1ccccc1)NCCc1ccccc1,–,inactive: -5.37% [at 102 µM]
CC(=O)Nc1ccc2c(CSc3nncs3)cc(=O)oc2c1,–,inconclusive: -52.6% [inhibitor]
CCCn1c(CN2CCN(C(=O)c3ccco3)CC2)nc2c1c(=O)n(C)c(=O)n2C,–,inactive: -0.49%
CCc1c(O)nc(SCC(=O)Nc2ccc(OC)cc2)n(C2CCCCC2)c1=O,"inconclusive: 56.2 µM [inhibitor, partial curve, poor fit]",–

SMILES,Potency,"activity, negative = inhibition"
CC(C)CC1Nc2ncnc(N3CCN(c4ccccn4)CC3)c2N(Cc2ccc(Br)cc2)C1=O (centres undefined),"inconclusive: 3.16 µM [inhibitor, single point]",–
Cc1nc2ccc(S(=O)(=O)NC(C(=O)Nc3nc4ccc(Cl)cc4s3)C(C)C)cc2s1 (centres undefined),"inconclusive: 89.1 µM [inhibitor, partial curve, poor fit]",–
COc1cccc(OCCNc2cc(N3CCOCC3)ccc2[N+](=O)[O-])c1,"inconclusive: 20 µM [inhibitor, single point]",–
Cc1cc(C)n(CCO)c(=O)n1,–,inactive: -7.29%
COc1ccc(C(=O)N/N=C(\C)c2ccc(NC(=O)Cc3ccccc3)cc2)c(OC)c1,–,inactive: -12.4% [at 102 µM]
COC(=O)c1cc(N2CCN(C)CC2)nc2ccccc12,active: 11.2 µM,–
COc1ccc2c(CNCc3ccco3)c(C(=O)O)n(Cc3ccc(F)cc3Cl)c2c1,–,inactive: -14.3%
COc1ccc(-c2oc3ncn(Cc4ccco4)c(=N)c3c2-c2ccc(OC)cc2)cc1,"inconclusive: 56.2 µM [inhibitor, partial curve, poor fit]",–
CCN(CC)CCn1c(=O)c(Cc2ccc(OC)cc2)nc2ccccc21,"inconclusive: 37.7 µM [inhibitor, single point]",–
CC(C)(C)c1cc(P(=O)(c2ccccc2)c2ccccc2)ccc1O,–,inactive: 3.56% [at 102 µM]
COc1ccc(C)cc1NC(=O)CSc1nnc(-c2cc(C)[nH]n2)n1N,–,inactive: -5.49% [at 0.0925 µM]
CC(C)Oc1snc(Cl)c1C(N)=O,"inconclusive: 89.1 µM [inhibitor, partial curve, poor fit]",–
CCN(CC)S(=O)(=O)c1ccc(NS(=O)(=O)c2ccc3oc(=O)[nH]c3c2)cc1,"inconclusive: 31.6 µM [inhibitor, partial curve, poor fit]",–
COc1ccc(NCc2n[nH]c(=O)c3ccccc23)cc1,"inconclusive: 14.1 µM [inhibitor, partial curve, poor fit]",–
CCCC1Cc2c(sc(NC(=S)NC(=O)c3ccccc3)c2C#N)CO1 (centres undefined),"inconclusive: 25.1 µM [inhibitor, single point]",–
Cc1sc(NC(=O)CN2CCCC2)nc1-c1ccc2c(c1)CCN2C(=O)c1ccc(F)cc1,"inconclusive: 89.1 µM [inhibitor, single point]",–
Cn1cccc1C(=O)NC(=O)COC(=O)CC12CC3CC(CC(C3)C1)C2,"inconclusive: 44.7 µM [inhibitor, partial curve, poor fit]",–
O=C(Nc1nccc(-c2cccs2)n1)c1ccccc1Cl,"inconclusive: 6.31 µM [inhibitor, single point]",–
N#Cc1nc(Cc2ccccc2)oc1NCc1ccccc1,"inconclusive: 28.2 µM [inhibitor, partial curve, poor fit]",–
CC1CCCCN1C(=O)c1ccc2c(c1)N(Cc1ccc(Cl)cc1)C(=O)c1ccccc1S2=O (centres undefined),–,inactive: -17.1%
CCCc1ccc(-c2c(C)sc(N)c2C#N)cc1,active: 39.8 µM,–
Cc1ccc(-n2ncc3c2CC(C)(C)CC3NC(=O)Cc2c(C)noc2C)cc1 (centres undefined),"inconclusive: 5.01 µM [inhibitor, partial curve, poor fit]",–
CCc1ccc(NC(=O)C(=O)NCCc2sc(-c3ccc(OC)c(OC)c3)nc2C)cc1,–,inactive: -1.39%

# Reference: PubChem BioAssay AID504332 (National Center for Advancing Translational Sciences (NCATS), 2011)
